Results: paper PMC10485003, “Antibiotic hyper-resistance in a class I aminoacyl-tRNA synthetase with altered active site signature motif” (Nature Communications, 2023)
Where “and” joins values, the source holds several entries; their conditions need not be identical. Identical values can stand only once. Like-named read-outs stand apart in the source and are kept apart here. This continues a long series; more values of the same kind are listed elsewhere.

Target: T1, mut-HVGH DrIleRS2 (Deinococcus radiodurans, UniProt Q9RUP8, A59H/H61G/L60V)
T1 construct: hexa-histidine tag (pET28b(+)) (N); made in house; host or cells: E. coli BL21(DE3)
T1 sequence (Q9RUP8 1-1078 A59H/L60V/H61G): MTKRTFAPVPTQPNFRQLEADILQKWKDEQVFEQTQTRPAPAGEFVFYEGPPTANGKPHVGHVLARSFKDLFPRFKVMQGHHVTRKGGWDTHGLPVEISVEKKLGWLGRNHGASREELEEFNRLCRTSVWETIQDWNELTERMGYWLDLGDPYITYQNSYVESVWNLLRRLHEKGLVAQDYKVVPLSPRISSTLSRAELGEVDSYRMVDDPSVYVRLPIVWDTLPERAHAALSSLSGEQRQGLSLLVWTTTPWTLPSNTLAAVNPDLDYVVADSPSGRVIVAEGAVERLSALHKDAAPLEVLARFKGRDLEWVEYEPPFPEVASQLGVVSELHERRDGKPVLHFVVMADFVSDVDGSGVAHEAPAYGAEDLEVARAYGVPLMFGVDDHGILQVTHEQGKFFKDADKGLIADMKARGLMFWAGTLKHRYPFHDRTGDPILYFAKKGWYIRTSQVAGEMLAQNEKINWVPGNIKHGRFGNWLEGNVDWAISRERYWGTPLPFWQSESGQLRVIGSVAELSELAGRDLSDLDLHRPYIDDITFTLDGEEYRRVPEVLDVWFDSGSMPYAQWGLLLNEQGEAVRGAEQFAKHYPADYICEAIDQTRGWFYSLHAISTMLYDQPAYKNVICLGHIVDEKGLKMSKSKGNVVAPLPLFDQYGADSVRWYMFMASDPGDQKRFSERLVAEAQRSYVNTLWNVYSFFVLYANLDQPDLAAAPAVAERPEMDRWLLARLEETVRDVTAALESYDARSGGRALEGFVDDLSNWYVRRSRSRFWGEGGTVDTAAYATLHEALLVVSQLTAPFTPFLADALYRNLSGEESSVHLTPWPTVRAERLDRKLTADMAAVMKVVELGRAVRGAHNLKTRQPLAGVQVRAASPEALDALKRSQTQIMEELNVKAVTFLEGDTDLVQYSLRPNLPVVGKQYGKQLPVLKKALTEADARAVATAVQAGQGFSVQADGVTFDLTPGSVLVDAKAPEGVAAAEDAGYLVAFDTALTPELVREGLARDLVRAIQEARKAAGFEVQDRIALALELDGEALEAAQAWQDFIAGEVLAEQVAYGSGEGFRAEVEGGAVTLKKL
Format: biochemical
Description: L-Ile and ATP concentrations ranged from 1/10 KM to 10 KM values. When measuring the KI towards one of the substrates, the other was held in saturation (concentrations at least 10 KM). The aliquots of the reaction mixture (1–2.5 μl) were quenched in 2 volumes of 500 mM NaOAc pH = 4.5, 0.1% SDS, and formed ^32P-ATP was separated from the remaining ^32P-PPi by thin-layer chromatography on Polygram CEL 300 PEI UV254 TLC plates (Macherey-Nagel, cat: 801063) using 750 mM KH2PO4 pH=3.5, 4 M urea buffer. Visualization and quantification of the signals was performed using a Typhoon Phosphoimager 5 (General Electric) and accompanying ImageQuant™ TL software (SV: 10.2). The kinetic constants were determined using a global fit option of the competitive inhibition model of GraphPad Prism 6 software (SV: 6.01). All experiments were performed in triplicates. The kcat was determined by dividing the maximal velocity, VM, with the used enzyme concentration. […]
variable substrate (ATP or Ile) was varied in the range of 0.1 KM to 10 KM. The other substrate (Ile or ATP) was kept in excess at 5 to 10 KM. Data were globally fitted to the competitive inhibition model using GraphPad prism 6.01 for Windows software. The values represent the average value ± SD of three independent experiments. Source data are provided as a Source Data file.
(1 picture or pasted object on this page, not shown here)

C/C(=C\C(=O)OCCCCCCCCC(=O)O)C[C@@H]1OC[C@H](C[C@@H]2O[C@H]2[C@@H](C)[C@H](C)O)[C@@H](O)[C@H]1O [mupirocin] was tested, and the initial velocity vo (c(mupirocin) 5.0 μM, c(ATP) 0.5 mM) was 0.03327 mM/min and 0.03484 mM/min and 0.03458 mM/min, the initial velocity vo (c(mupirocin) 5.0 μM, c(ATP) 1.0 mM) was 0.04514 mM/min and 0.0474 mM/min and 0.04561 mM/min and the initial velocity vo (c(mupirocin) 5.0 μM, c(ATP) 2.5 mM) was 0.05674 mM/min and 0.0588 mM/min and 0.05907 mM/min. For the same compound, the initial velocity vo (c(mupirocin) 5.0 μM, c(ATP) 5.0 mM) was 0.06469 mM/min and 0.06292 mM/min and 0.06379 mM/min, the initial velocity vo (c(mupirocin) 5.0 μM, c(ATP) 10.0 mM) was 0.06774 mM/min and 0.06959 mM/min and 0.07015 mM/min and the initial velocity vo (c(mupirocin) 5.0 μM, c(Ile) 5.0 μM) was 0.0129 mM/min and 0.01075 mM/min and 0.01073 mM/min. The initial velocity vo (c(mupirocin) 5.0 μM, c(Ile) 10.0 μM) was 0.01995 mM/min and 0.01847 mM/min and 0.01868 mM/min, the initial velocity vo (c(mupirocin) 5.0 μM, c(Ile) 25.0 μM) was 0.03629 mM/min and 0.03521 mM/min and 0.03567 mM/min and the initial velocity vo (c(mupirocin) 5.0 μM, c(Ile) 50.0 μM) was 0.0469 mM/min and 0.04783 mM/min and 0.04766 mM/min. For the same compound, the initial velocity vo (c(mupirocin) 5.0 μM, c(Ile) 100.0 μM) was 0.05712 mM/min and 0.05672 mM/min and 0.05643 mM/min, the initial velocity vo (c(mupirocin) 5.0 μM, c(Ile) 250.0 μM) was 0.06618 mM/min and 0.06896 mM/min and 0.0659 mM/min and the initial velocity vo (c(mupirocin) 10.0 μM, c(ATP) 0.5 mM) was 0.02937 mM/min and 0.02803 mM/min and 0.03007 mM/min. For the same compound, the initial velocity vo (c(mupirocin) 10.0 μM, c(ATP) 1.0 mM) was 0.04219 mM/min and 0.04308 mM/min and 0.04326 mM/min, the initial velocity vo (c(mupirocin) 10.0 μM, c(ATP) 2.5 mM) was 0.05586 mM/min and 0.05467 mM/min and 0.05833 mM/min and the initial velocity vo (c(mupirocin) 10.0 μM, c(ATP) 5.0 mM) was 0.06405 mM/min and 0.06224 mM/min and 0.06515 mM/min. For the same compound, the initial velocity vo (c(mupirocin) 10.0 μM, c(ATP) 10.0 mM) was 0.06656 mM/min and 0.06609 mM/min and 0.06838 mM/min, the initial velocity vo (c(mupirocin) 10.0 μM, c(Ile) 5.0 μM) was 0.00841 mM/min and 0.00793 mM/min and the initial velocity vo (c(mupirocin) 10.0 μM, c(Ile) 10.0 μM) was 0.01474 mM/min and 0.01242 mM/min and 0.01403 mM/min. For the same compound, the initial velocity vo (c(mupirocin) 10.0 μM, c(Ile) 25.0 μM) was 0.02679 mM/min and 0.0288 mM/min, the initial velocity vo (c(mupirocin) 10.0 μM, c(Ile) 50.0 μM) was 0.03976 mM/min and 0.04222 mM/min and the initial velocity vo (c(mupirocin) 10.0 μM, c(Ile) 100.0 μM) was 0.05189 mM/min and 0.05281 mM/min and 0.05518 mM/min. The initial velocity vo (c(mupirocin) 10.0 μM, c(Ile) 250.0 μM) was 0.06307 mM/min and 0.05915 mM/min and 0.06518 mM/min, the initial velocity vo (c(mupirocin) 25.0 μM, c(ATP) 0.5 mM) was 0.0191 mM/min and the initial velocity vo (c(mupirocin) 25.0 μM, c(ATP) 1.0 mM) was 0.03155 mM/min and 0.02933 mM/min and 0.03091 mM/min. The initial velocity vo (c(mupirocin) 25.0 μM, c(ATP) 2.5 mM) was 0.04534 mM/min and 0.0464 mM/min and 0.04521 mM/min, the initial velocity vo (c(mupirocin) 25.0 μM, c(ATP) 5.0 mM) was 0.05626 mM/min and 0.05591 mM/min and 0.0586 mM/min and the initial velocity vo (c(mupirocin) 25.0 μM, c(ATP) 10.0 mM) was 0.06316 mM/min and 0.0606 mM/min and 0.06102 mM/min. The initial velocity vo (c(mupirocin) 25.0 μM, c(Ile) 5.0 μM) was 0.00447 mM/min and 0.00286 mM/min and 0.00381 mM/min, the initial velocity vo (c(mupirocin) 25.0 μM, c(Ile) 10.0 μM) was 0.00829 mM/min and 0.00542 mM/min and 0.00779 mM/min and the initial velocity vo (c(mupirocin) 25.0 μM, c(Ile) 25.0 μM) was 0.01859 mM/min and 0.01898 mM/min and 0.01914 mM/min. For the same compound, the initial velocity vo (c(mupirocin) 25.0 μM, c(Ile) 50.0 μM) was 0.03035 mM/min and 0.03048 mM/min and 0.03012 mM/min, the initial velocity vo (c(mupirocin) 25.0 μM, c(Ile) 100.0 μM) was 0.04249 mM/min and 0.0435 mM/min and the initial velocity vo (c(mupirocin) 25.0 μM, c(Ile) 250.0 μM) was 0.05543 mM/min and 0.05579 mM/min and 0.05654 mM/min. For the same compound, the initial velocity vo (c(mupirocin) 50.0 μM, c(ATP) 0.5 mM) was 0.01252 mM/min and 0.01316 mM/min, the initial velocity vo (c(mupirocin) 50.0 μM, c(ATP) 1.0 mM) was 0.02068 mM/min and 0.0206 mM/min and 0.02087 mM/min and the initial velocity vo (c(mupirocin) 50.0 μM, c(ATP) 2.5 mM) was 0.03486 mM/min and 0.03651 mM/min and 0.03535 mM/min. The initial velocity vo (c(mupirocin) 50.0 μM, c(ATP) 5.0 mM) was 0.04936 mM/min and 0.04894 mM/min and 0.04899 mM/min, the initial velocity vo (c(mupirocin) 50.0 μM, c(ATP) 10.0 mM) was 0.05747 mM/min and 0.05622 mM/min and 0.05873 mM/min and the initial velocity vo (c(mupirocin) 50.0 μM, c(Ile) 10.0 μM) was 0.00515 mM/min and 0.00412 mM/min and 0.00552 mM/min. The initial velocity vo (c(mupirocin) 50.0 μM, c(Ile) 25.0 μM) was 0.01292 mM/min and 0.01386 mM/min and 0.01166 mM/min, the initial velocity vo (c(mupirocin) 50.0 μM, c(Ile) 50.0 μM) was 0.0214 mM/min and 0.02166 mM/min and 0.02104 mM/min and the initial velocity vo (c(mupirocin) 50.0 μM, c(Ile) 100.0 μM) was 0.03443 mM/min and 0.03225 mM/min and 0.03201 mM/min. For the same compound, the initial velocity vo (c(mupirocin) 50.0 μM, c(Ile) 250.0 μM) was 0.05004 mM/min and 0.04981 mM/min and 0.0499 mM/min, the initial velocity vo (c(mupirocin) 100.0 μM, c(ATP) 0.5 mM) was 0.0049 mM/min and 0.00448 mM/min and 0.00457 mM/min and the initial velocity vo (c(mupirocin) 100.0 μM, c(ATP) 1.0 mM) was 0.01134 mM/min and 0.01322 mM/min and 0.0128 mM/min. The initial velocity vo (c(mupirocin) 100.0 μM, c(ATP) 2.5 mM) was 0.02596 mM/min and 0.02538 mM/min and 0.02608 mM/min, the initial velocity vo (c(mupirocin) 100.0 μM, c(ATP) 5.0 mM) was 0.0379 mM/min and 0.03912 mM/min and 0.038 mM/min and the initial velocity vo (c(mupirocin) 100.0 μM, c(ATP) 10.0 mM) was 0.05029 mM/min and 0.04929 mM/min and 0.05151 mM/min. For the same compound, the initial velocity vo (c(mupirocin) 100.0 μM, c(Ile) 5.0 μM) was 0.00154 mM/min and 0.00159 mM/min, the initial velocity vo (c(mupirocin) 100.0 μM, c(Ile) 10.0 μM) was 0.00291 mM/min and 0.00285 mM/min and the initial velocity vo (c(mupirocin) 100.0 μM, c(Ile) 25.0 μM) was 0.00712 mM/min and 0.0073 mM/min and 0.00695 mM/min. For the same compound, the initial velocity vo (c(mupirocin) 100.0 μM, c(Ile) 50.0 μM) was 0.01325 mM/min and 0.01344 mM/min and 0.01293 mM/min, the initial velocity vo (c(mupirocin) 100.0 μM, c(Ile) 100.0 μM) was 0.02202 mM/min and 0.02146 mM/min and the initial velocity vo (c(mupirocin) 100.0 μM, c(Ile) 250.0 μM) was 0.0379 mM/min and 0.03732 mM/min and 0.03625 mM/min.
